Data reported in PubChem BioAssay AID1508623 (National Center for Advancing Translational Sciences (NCATS), 2021).
Out of some 48,000 compounds screened, about 450 (0.94%) were called active. This list was built around the results that the source calls inconclusive (neither active nor inactive); the mix of calls is not that of the screen. The call rests on the fitted dose curve; in most records, active means well fitted inhibition curve with a large enough effect; inconclusive means small, poorly fitted or top-dose-only effect; inactive means no such curve, though single readings can be large or run the other way. Where the call is inconclusive, the potency comes from a doubtful curve fit.
Potency means the concentration at half of the fitted maximal effect; tags describe the fitted curve by direction and shape.

Assay: Primary qHTS for Identification of Small Molecule Inhibitors of Huntingtin Promoter Activity; further: nearly all actives have a fitted effect of over 50% in size
Conditions: HEK293 HTT promoter firefly luciferase reporter (activity 0% = vehicle and -100% = no light), 24 h; series mostly up to 57.5 µM
Outline: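 HEK293 luciferase promoter-reporter cells (2,500/well) plated 24 h, then compounds added at up to 57.5 uM final for 24 h at 37 °C. Firefly luminescence by Dual-Glo, normalized to vehicle (0%) and zero RLU (-100%).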
For `CC(C)OCCCn1c(SCC(N)=O)nc2c(sc3ccccc32)c1=O`, the Potency was “inactive”.
With `O=C(c1ccc(CS(=O)c2ccccc2Cl)o1)N1CCN(c2cccc(C(F)(F)F)c2)CC1` (stereo not given) the Potency was inconclusive: 3.16 µM [inhibitor, partial curve, poor fit].
For `CC(NC(=O)c1ccc(CSc2nc3ccncc3n2Cc2ccc(F)cc2)cc1)c1ccccc1` (stereo not given), the Potency was inconclusive: 22.4 µM [inhibitor, single point].
With `COCCNC(=O)c1ccc2c(c1)N(Cc1ccc(C(F)(F)F)cc1)C(=O)c1ccccc1S2` the Potency was inconclusive: 28.2 µM [inhibitor, partial curve, poor fit].
With `Cc1ccccc1OCC(=O)Nc1c(C)ccc2nsnc12` the Potency was inconclusive: 39.8 µM [inhibitor, single point].
For `CC1CCN(S(=O)(=O)c2ccc3c(ccn3CC(=O)NCc3ccc(N(C)C)cc3)c2)CC1`, the Potency was inconclusive: 35.5 µM [inhibitor, single point].
In the case of `CCC1CN(C(=O)N2CCC(C(=O)N3CCN(c4ccc(F)cc4)CC3)CC2)c2ccccc2O1` (stereo not given), the Potency is reported as inconclusive: 20 µM [inhibitor, single point].
For `Cc1ccc(NC(=O)C2CCN(C(=O)c3cnn(-c4ccccc4)c3-n3cccc3)CC2)cc1`, the Potency was inconclusive: 35.5 µM [inhibitor, partial curve].
In the case of `CCOC(=O)N1CCc2c(sc3c2c(=O)n(-c2ccc(CC)cc2)c(=O)n3CC(=O)c2ccccc2)C1`, the Potency is reported as inconclusive: 5.62 µM [inhibitor, partial curve].
With `O=C(NCc1ccccc1Cl)c1ccc(NC(=O)c2nsc3ccccc23)cc1` the Potency was inconclusive: 39.8 µM [inhibitor, single point].
With `CCOc1cc(C)c(C(C)C)cc1S(=O)(=O)n1ccnc1CC` the Potency was inconclusive: 25.1 µM [inhibitor, partial curve, poor fit].
With `COc1ccc2c(Oc3ccc(NC(=O)c4c(C)n(CC(C)(C)O)n(-c5ccccc5)c4=O)cc3F)ccnc2c1` the Potency was inconclusive: 24.3 µM [inhibitor, partial curve].
With `CCOC(=O)c1cccc(NC(=O)Nc2ccc3c(c2)N(C)C(=O)c2ccccc2S3)c1` the Potency was inconclusive: 28.2 µM [inhibitor, partial curve, poor fit].
With `O=C(NCCCN1CCN(c2ccccc2F)CC1)C1COc2ccccc2C1` (stereo not given) the Potency was “inactive”.
With `CCOC(=O)N1CCN(Cc2nc3cc(NC(=O)c4ccc([N+](=O)[O-])cc4)ccc3n2C(C)C)CC1` the Potency was inconclusive: 17.8 µM [inhibitor, partial curve, poor fit].
For `COc1cccc(CNC(=O)Cn2c(SCC(=O)Nc3ccc(C)c(C)c3)nc3ccccc32)c1`, the Potency was “inactive”.
With `Cc1cc(Nc2cccc(C(F)(F)F)c2)nc2ccc(NC(=O)c3cccnc3)cc12` the Potency was inconclusive: 22.4 µM [inhibitor, single point].
With `COc1ccc(Nc2ncnc3c2nc2n3CCCC2)cc1Cl` the Potency was “inactive”.
With `COc1nnc(-c2ccc(N3CCCCC3)c(NC(=O)c3ccccc3)c2)c2ccccc12` the Potency was inconclusive: 3.16 µM [inhibitor, single point].
With `COc1ccc(CNC(=O)c2ccc3c(c2)N(Cc2ccccc2)CCS3)cc1` the Potency was inconclusive: 31.6 µM [inhibitor, single point].
With `CC(C)Oc1ccc(C(=O)Nc2nc3c(s2)CC(C(C)(C)C)CC3)cc1` (stereo not given) the Potency was inconclusive: 39.8 µM [inhibitor, single point].
For `O=C(NCC(c1ccc2c(c1)OCO2)N1CCN(c2ccccc2)CC1)c1ccccc1` (stereo not given), the Potency was inconclusive: 39.8 µM [inhibitor, single point].
For `Cc1nc2nc(C(F)(F)F)[nH]n2c(=O)c1Cc1ccccc1`, the Potency was “inactive”.
In the case of `C#C[C@]1(OC(C)=O)CC[C@H]2[C@@H]3CCC4=C/C(=N/O)CC[C@@H]4[C@H]3CC[C@@]21CC`, the Potency is reported as inconclusive: 39.8 µM [inhibitor, single point].
For `CCOc1ccccc1NC(=O)c1c(NC(=O)c2ccncc2)sc2c1CCC(C(C)(C)C)C2` (stereo not given), the Potency was “inactive”.
With `Cc1ccc(O)c(NC(=O)CCSc2nc(-c3ccco3)cc(C(F)(F)F)n2)c1` the Potency was inconclusive: 35.5 µM [inhibitor, single point].
For `C[C@]12C=CC(=O)N[C@@H]1CC[C@H]1[C@H]3CC[C@@H](C(=O)Nc4cc(C(F)(F)F)ccc4C(F)(F)F)[C@@]3(C)CC[C@@H]12`, the Potency was “inactive”.
In the case of `CCOc1ccccc1N1CC(c2nc3ccccc3n2CCOc2ccccc2OC)CC1=O` (stereo not given), the Potency is reported as inconclusive: 39.8 µM [inhibitor, partial curve, poor fit].
With `Cn1nc(-c2ccc(C(=O)Nc3ccc(OC(F)(F)F)cc3)cc2)c2ccccc2c1=O` the Potency was active: 10 µM.
For `O=C(NCc1ccccc1Cl)C(=O)NCC(c1cccs1)S(=O)(=O)c1ccccc1` (stereo not given), the Potency was inconclusive: 39.8 µM [inhibitor, single point].
For `N#C/C(=C\c1ccc(-c2ccc(Cl)c(C(=O)O)c2)o1)c1nc2ccccc2[nH]1`, the Potency was “inactive”.
With `COc1ccc2c(c1)Cc1sc(NC(=O)c3ccc(Cl)cc3)nc1-2` the Potency was inconclusive: 31.6 µM [inhibitor, partial curve, poor fit].
For `CC(C)c1ccc(-c2noc(SCC(=O)N(C)c3ccc(F)cc3)n2)cc1`, the Potency was inconclusive: 25.1 µM [inhibitor, single point].
With `CC(=O)N1CCCc2ccc(NC(=O)c3ccc(C(F)(F)F)cc3)cc21` the Potency was inconclusive: 28.2 µM [inhibitor, single point].
In the case of `CN(C)c1ccc2cc(C(=O)N[C@@H](CCCN=C(N)CCl)C(=O)NCc3ccccc3)ccc2c1`, the Potency is reported as “inactive”.
In the case of `CCc1ccc(CNC(=O)C2CCN(C(=O)c3ccc(-n4ccc5ccccc54)s3)CC2)cc1`, the Potency is reported as inconclusive: 31.6 µM [inhibitor, single point].
For `Cc1ccccc1CS(=O)(=O)c1ncc(Cl)c(C(=O)Nc2nnc(C(C)C)s2)n1`, the Potency was inconclusive: 39.8 µM [inhibitor, single point].
In the case of `Cc1nc(-c2ccccc2)sc1-c1ccc(SCC(=O)Nc2ccccc2)nn1`, the Potency is reported as “inactive”.
For `CCc1ccc(NC(=O)N2CCN(c3nnc(C)c4c(C)n(-c5ccc(Cl)cc5)nc34)CC2)cc1`, the Potency was inconclusive: 20 µM [inhibitor, partial curve, poor fit].
With `O=C(CCNS(=O)(=O)c1ccc(Br)s1)Nc1ccc(Br)cc1` the Potency was “inactive”.
For `CCOc1cccc(CC(=O)NCc2ccc3c(c2)CCN3C(=O)c2cccc(C)c2)c1OCC`, the Potency was inconclusive: 35.5 µM [inhibitor, single point].
With `COc1ccc(-c2nc(CSCC(=O)NCCc3ccc(OC)c(OC)c3)c(C)o2)cc1` the Potency was inconclusive: 39.8 µM [inhibitor, single point].
With `COc1ccccc1CNC(=O)c1cc2cccc3c2n1CCS3` the Potency was inconclusive: 8.91 µM [inhibitor, partial curve].
For `CCCCN(CC)CCCNC(=O)c1ccc2c(c1)N(Cc1ccc(C)cc1)C(=O)c1ccccc1S2`, the Potency was inconclusive: 39.8 µM [inhibitor, single point].
For `CCOc1ccc(CCNC(=O)c2cc3n(n2)CCCN(Cc2ccc(C)cc2)C3=O)cc1OCC`, the Potency was inconclusive: 35.5 µM [inhibitor, partial curve, poor fit].
For `Cc1cc(-c2ccc(C)c(S(=O)(=O)Nc3ccc(C)c(N(C)C)c3)c2)on1`, the Potency was inconclusive: 25.1 µM [inhibitor, partial curve, poor fit].
In the case of `O=C(CCCc1nc(-c2ccc(Cl)cc2)no1)NCc1ccco1`, the Potency is reported as inconclusive: 14.1 µM [inhibitor, partial curve].
In the case of `CCN(CC)c1cc(NC2CCCCC2)c2c3c(onc13)-c1ccccc1C2=O`, the Potency is reported as inconclusive: 25.1 µM [inhibitor, partial curve, poor fit].
In the case of `Cn1cnc(S(=O)(=O)N2CCC(C(=O)Nc3ccc(OC(F)(F)F)cc3)CC2)c1`, the Potency is reported as inconclusive: 20 µM [inhibitor, partial curve, poor fit].
With `COc1cccc(CNC(=O)C2CCCN(c3nn4cc(-c5ccc(C)cc5)nc4s3)C2)c1` (stereo not given) the Potency was inconclusive: 22.4 µM [inhibitor, partial curve, poor fit].
With `CCCCN1C(C(=O)c2ccccc2)=C(OC(=O)CC)c2ccccc2S1(=O)=O` the Potency was inconclusive: 10 µM [inhibitor, partial curve, poor fit].
For `O=C(NCc1ccc(Cl)cc1)c1cc2cccc3c2n1CCS3`, the Potency was inconclusive: 35.5 µM [inhibitor, partial curve, poor fit].
In the case of `CCCCNC(=O)CN1CCN(c2ccc(NC(=O)c3ccc(OC)cc3)cc2C(=O)O)CC1`, the Potency is reported as “inactive”.
In the case of `Cn1c(=O)c2c(ncn2CCO)n(C)c1=O`, the Potency is reported as “inactive”.
For `O=C(c1cccs1)N1CCCc2cc(NS(=O)(=O)c3ccc(Br)cc3)ccc21`, the Potency was inconclusive: 35.5 µM [inhibitor, partial curve, poor fit].
With `CCCSC1=NC2(CCN(C(=O)NC3CCCCC3)CC2)N=C1c1ccc(OC)cc1` the Potency was inconclusive: 39.8 µM [inhibitor, partial curve, poor fit].
With `Cc1nc(-c2cccc(F)c2)sc1CCNC(=O)Cc1ccc(F)cc1` the Potency was “inactive”.
With `Cn1c(C(=O)NCc2ccccc2Cl)cc2sc(Cl)cc21` the Potency was inconclusive: 25.1 µM [inhibitor, single point].
With `COc1ccc(-c2csc3ncnc(Nc4ccc(OC)cc4OC)c23)cc1` the Potency was inconclusive: 35.5 µM [inhibitor, partial curve, poor fit].
For `COc1cccc(CNC(=O)Cn2c(=O)cc(C)c3c(C)nn(C)c32)c1OC`, the Potency was inconclusive: 12.6 µM [inhibitor, partial curve].
